Assay results taken from patent publication US10112926B2 (priority 2014, dated 2018).
Where a name gives a salt, the structure may show the parent alone. Read-outs that look alike come from different tables or passages of the source.

Columns and labels:
[1] = system: IL-8-induced neutrophil shape change in human whole blood; conditions: read-out: Assay L WBSC IC50; hydrochloride
PI 3-kinase delta = PI 3-kinase delta (Homo sapiens (Human), UniProt O00329); conditions: read-out: Assay F PI3Kδ IC50
PI 3-kinase alpha = PI 3-kinase alpha (Homo sapiens (Human), UniProt P42336); conditions: read-out: Assay A PI3Kα IC50
[2] = system: IL-8-induced neutrophil shape change in human whole blood; assay: cells; conditions: read-out: Assay L WBSC IC50

Sequence of PI 3-kinase alpha (P42336 whole entry, looked up): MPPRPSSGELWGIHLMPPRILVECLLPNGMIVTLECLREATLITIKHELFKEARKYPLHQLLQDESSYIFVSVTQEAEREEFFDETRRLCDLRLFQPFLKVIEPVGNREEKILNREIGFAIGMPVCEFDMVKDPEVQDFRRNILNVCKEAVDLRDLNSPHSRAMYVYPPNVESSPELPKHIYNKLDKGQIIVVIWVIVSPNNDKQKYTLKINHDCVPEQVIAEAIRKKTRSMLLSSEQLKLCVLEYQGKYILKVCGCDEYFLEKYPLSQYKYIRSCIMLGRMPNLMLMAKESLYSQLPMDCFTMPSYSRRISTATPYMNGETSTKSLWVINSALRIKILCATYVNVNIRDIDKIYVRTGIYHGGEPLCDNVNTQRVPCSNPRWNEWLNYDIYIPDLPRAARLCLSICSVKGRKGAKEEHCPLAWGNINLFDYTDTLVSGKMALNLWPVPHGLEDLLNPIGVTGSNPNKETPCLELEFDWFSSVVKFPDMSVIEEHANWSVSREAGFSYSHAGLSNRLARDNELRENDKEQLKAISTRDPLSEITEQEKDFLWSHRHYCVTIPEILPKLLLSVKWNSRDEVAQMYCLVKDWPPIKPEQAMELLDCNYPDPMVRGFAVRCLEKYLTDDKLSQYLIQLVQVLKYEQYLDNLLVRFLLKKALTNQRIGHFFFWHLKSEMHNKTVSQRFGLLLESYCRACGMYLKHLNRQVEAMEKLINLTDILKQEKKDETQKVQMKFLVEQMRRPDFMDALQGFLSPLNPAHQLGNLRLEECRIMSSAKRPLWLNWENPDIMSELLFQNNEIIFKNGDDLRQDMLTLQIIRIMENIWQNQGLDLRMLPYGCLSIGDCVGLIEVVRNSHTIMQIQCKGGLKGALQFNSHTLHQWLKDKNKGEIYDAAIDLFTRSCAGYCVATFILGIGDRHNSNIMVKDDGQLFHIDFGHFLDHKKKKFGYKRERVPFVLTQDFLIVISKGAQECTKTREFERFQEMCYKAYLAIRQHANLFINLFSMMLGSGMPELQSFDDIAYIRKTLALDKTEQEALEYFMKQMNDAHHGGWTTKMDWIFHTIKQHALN
Sequence of PI 3-kinase alpha (P27986 whole entry partner, looked up): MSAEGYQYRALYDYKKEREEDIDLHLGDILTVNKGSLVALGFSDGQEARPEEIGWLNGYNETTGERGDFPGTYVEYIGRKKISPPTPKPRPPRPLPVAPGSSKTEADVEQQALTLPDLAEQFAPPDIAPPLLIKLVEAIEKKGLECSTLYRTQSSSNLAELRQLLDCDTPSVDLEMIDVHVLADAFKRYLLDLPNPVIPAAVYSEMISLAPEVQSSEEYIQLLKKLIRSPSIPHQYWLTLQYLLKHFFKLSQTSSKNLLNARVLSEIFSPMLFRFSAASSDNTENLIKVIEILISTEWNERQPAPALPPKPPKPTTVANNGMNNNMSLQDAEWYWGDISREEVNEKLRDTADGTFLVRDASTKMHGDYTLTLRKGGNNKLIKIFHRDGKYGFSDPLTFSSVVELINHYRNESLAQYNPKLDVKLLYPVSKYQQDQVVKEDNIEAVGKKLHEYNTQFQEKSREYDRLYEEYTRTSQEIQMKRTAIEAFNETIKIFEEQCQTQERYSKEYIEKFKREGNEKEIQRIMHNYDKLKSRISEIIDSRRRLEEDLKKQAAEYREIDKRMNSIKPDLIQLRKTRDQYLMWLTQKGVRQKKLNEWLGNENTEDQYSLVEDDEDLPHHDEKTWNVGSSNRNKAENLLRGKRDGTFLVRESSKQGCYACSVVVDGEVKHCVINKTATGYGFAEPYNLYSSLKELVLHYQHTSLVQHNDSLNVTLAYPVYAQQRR
Sequence of PI 3-kinase delta (O00329 whole entry, looked up): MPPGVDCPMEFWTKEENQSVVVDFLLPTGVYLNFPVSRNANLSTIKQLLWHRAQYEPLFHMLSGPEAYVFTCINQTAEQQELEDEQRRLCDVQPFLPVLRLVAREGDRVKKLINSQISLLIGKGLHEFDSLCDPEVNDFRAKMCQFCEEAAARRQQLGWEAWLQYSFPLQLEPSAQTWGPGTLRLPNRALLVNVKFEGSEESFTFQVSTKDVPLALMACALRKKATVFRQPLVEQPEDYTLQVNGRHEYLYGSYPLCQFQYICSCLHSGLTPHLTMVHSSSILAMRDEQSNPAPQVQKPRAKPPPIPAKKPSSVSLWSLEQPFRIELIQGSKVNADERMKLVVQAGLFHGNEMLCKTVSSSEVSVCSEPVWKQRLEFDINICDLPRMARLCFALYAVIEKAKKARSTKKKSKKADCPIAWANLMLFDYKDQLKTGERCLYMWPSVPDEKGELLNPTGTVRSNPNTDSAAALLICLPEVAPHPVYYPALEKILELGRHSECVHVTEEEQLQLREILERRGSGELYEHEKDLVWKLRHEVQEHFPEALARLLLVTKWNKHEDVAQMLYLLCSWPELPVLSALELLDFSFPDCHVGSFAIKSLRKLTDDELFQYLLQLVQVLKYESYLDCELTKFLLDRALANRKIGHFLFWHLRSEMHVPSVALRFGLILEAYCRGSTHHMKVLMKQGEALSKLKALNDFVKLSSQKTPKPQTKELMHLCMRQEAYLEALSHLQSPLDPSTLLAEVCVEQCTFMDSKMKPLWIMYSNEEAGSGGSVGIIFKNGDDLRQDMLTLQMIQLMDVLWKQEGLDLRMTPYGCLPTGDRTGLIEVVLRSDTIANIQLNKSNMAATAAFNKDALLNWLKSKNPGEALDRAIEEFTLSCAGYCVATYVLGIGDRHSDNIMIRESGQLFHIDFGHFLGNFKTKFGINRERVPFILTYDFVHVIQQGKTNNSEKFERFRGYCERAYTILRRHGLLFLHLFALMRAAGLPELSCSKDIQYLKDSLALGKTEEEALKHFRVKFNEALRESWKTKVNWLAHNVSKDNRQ
Sequence of PI 3-kinase delta (P27986 whole entry partner, looked up): as the sequence (P27986 whole entry partner, looked up) above

Compound | IC50 [2] [µM] | further results
Cc1noc(-c2cc(-c3cc(S(=O)(=O)N[C@H]4CC5(C[C@@H](O)C5)C4)ccc3C)cnc2N)n1 (single isomer, unassigned) [Example 8.2, (R) or (S)-3-[6-Amino-5-(3-methyl-[1,2,4]oxadiazol-5-yl)-pyridin-3-yl]-N-(6-hydroxy-spiro[3.3]hept-2-yl)-4-methyl-benzenesulfonamide hydrochloride] | – | IC50 [1]: 0.63 µM
Cc1ncc(-c2cc(-c3cc(S(=O)(=O)NC4CC5(CC(O)C5)C4)ccc3C)cnc2N)s1 (stereo not drawn) [Example 28, 3-(6-Amino-5-(2-methylthiazol-5-yl)pyridin-3-yl)-N-(6-hydroxyspiro[3.3]heptan-2-yl)-4-methylbenzenesulfonamide] | – | IC50 (PI 3-kinase delta): 0.2 µM
Cc1cnn(-c2cc(-c3cc(S(=O)(=O)NCC(C)(C)O)ccc3C)cnc2N)c1 [Example 60, 3-(6-Amino-5-(4-methyl-1H-pyrazol-1-yl)pyridin-3-yl)-N-(2-hydroxy-2-methylpropyl)-4-methylbenzenesulfonamide] | – | IC50 (PI 3-kinase alpha): 9.4 µM
Cc1ccc(S(=O)(=O)NCC(C)(C)O)cc1-c1cnc(N)c(-c2cnco2)c1 [Example 94a, 3-(6-amino-5-(oxazol-5-yl)pyridin-3-yl)-N-(2-hydroxy-2-methylpropyl)-4-methylbenzenesulfonamide] | 0.72 | –
Cc1cc(-c2cc(-c3cc(S(=O)(=O)N[C@H]4CC[C@H](O)CC4)ccc3C)cnc2N)ccn1 [Example 4.3, trans 3-(2-Amino-2′-methyl-[3,4′-bipyridin]-5-yl)-N-(4-hydroxycyclohexyl)-4-methyl-benzenesulfonamide] | 1.02 | –
Cc1ccc(S(=O)(=O)NCC(C)(C)O)cc1-c1cnc(N)c(-c2cc(C(=O)N3CCOCC3)no2)c1 [Example 42, 3-(6-Amino-5-(3-(morpholine-4-carbonyl)isoxazol-5-yl)pyridin-3-yl)-N-(2-hydroxy-2-methylpropyl)-4-methylbenzenesulfonamide] | 0.9 | –
Cc1noc(-c2cc(-c3cc(S(=O)(=O)NCC4(O)CCOCC4)ccc3C)cnc2N)n1 [Example 51, 3-(6-Amino-5-(3-methyl-1,2,4-oxadiazol-5-yl)pyridin-3-yl)-N-((4-hydroxytetrahydro-2H-pyran-4-yl)methyl)-4-methylbenzenesulfonamide] | 1.23 | –
Cc1cc(-c2cc(-c3cc(S(=O)(=O)N[C@H]4CC[C@H](O)CC4)ccc3C)cnc2N)on1 [Example 5.4, trans 3-(6-Amino-5-(3-methylisoxazol-5-yl)pyridin-3-yl)-N-(-4-hydroxycyclohexyl)-4-methylbenzenesulfon-amide hydrochloride] | 0.38 | –
CCc1cc(-c2cc(-c3cc(S(=O)(=O)NCC(C)(C)O)ccc3C)cnc2N)on1 [Example 4.6, 3-(6-Amino-5-(3-ethylisoxazol-5-yl)pyridin-3-yl)-N-(2-hydroxy-2-methylpropyl)-4-methyl-benzenesulfonamide hydrochloride] | 1.77 | –
Cc1ccc(S(=O)(=O)NCC(C)(C)O)cc1-c1cnc(N)c(-c2cc(C3CC3)no2)c1 [Example 35.3, 3-(6-Amino-5-(3-cyclopropylisoxazol-5-yl)pyridin-3-yl)-N-(2-hydroxy-2-methylpropyl)-4-methylbenzenesulfonamide hydrochloride] | 4.81 | –
Cc1noc(-c2cc(-c3cc(S(=O)(=O)N[C@H]4CC[C@H](O)CC4)ccc3C)cnc2N)n1 [Example 12, trans 3-[6-Amino-5-(3-methyl-[1,2,4]oxadiazol-5-yl)-pyridin-3-yl]-N-(4-hydroxy-cyclohexyl)-4-methyl-benzenesulfonamide, hydrochloride salt] | 0.38 | –
Cc1cc(-c2cc(-c3cc(S(=O)(=O)NCCC(C)(C)O)ccc3C)cnc2N)ccn1 [Example 16, 3-(2-Amino-2′-methyl-[3,4′]bipyridinyl-5-yl)-N-(3-hydroxy-3-methyl-butyl)-4-methyl-benzenesulfonamide] | 2.47 | –
Cc1ccc(S(=O)(=O)NCC(C)(C)O)cc1-c1cnc(N)c(-c2nc(C(C)C)no2)c1 [Example 5.1, 3-(6-Amino-5-(3-isopropyl-1,2,4-oxadiazol-5-yl)pyridin-3-yl)-N-(2-hydroxy-2-methylpropyl)-4-methylbenzenesulfonamide hydrochloride] | 4.99 | –
Cc1cc(-c2cc(-c3cc(S(=O)(=O)NCC4(CO)COC4)ccc3C)cnc2N)on1 [Example 50, 3-(6-Amino-5-(3-methylisoxazol-5-yl)pyridin-3-yl)-N-((3-(hydroxymethyl)oxetan-3-yl)methyl)-4-methylbenzenesulfonamide] | 0.64 | –
Cc1noc(-c2cc(-c3cc(S(=O)(=O)NC4CC5(CC(O)C5)C4)ccc3C)cnc2N)n1 (racemic) [Example 8, 3-[6-Amino-5-(3-methyl-[1,2,4]oxadiazol-5-yl)-pyridin-3-yl]-N-(6-hydroxy-spiro[3.3]hept-2-yl)-4-methyl-benzenesulfonamide (racemate)] | 0.92 | –
Cc1ccc(S(=O)(=O)NCCC(C)(C)O)cc1-c1cnc(N)c(-c2cnn(C)c2)c1 [Example 2, 3-(6-Amino-5-(1-methyl-1H-pyrazol-4-yl)pyridin-3-yl)-N-(3-hydroxy-3-methylbutyl)-4-methylbenzenesulfonamide] | 0.84 | –
Cc1noc(-c2cc(-c3cc(S(=O)(=O)N[C@H]4CC5(C[C@@H](O)C5)C4)ccc3C)cnc2N)n1 (single isomer, unassigned) [Example 8.1, (R) or (S)-3-[6-Amino-5-(3-methyl-[1,2,4]oxadiazol-5-yl)-pyridin-3-yl]-N-(6-hydroxy-spiro[3.3]hept-2-yl)-4-methyl-benzenesulfonamide hydrochloride] | 0.53 | –
Cc1cc(-c2cc(-c3cc(S(=O)(=O)N[C@H]4CC[C@H](CO)CC4)ccc3C)cnc2N)ccn1 [Example 77, trans-3-(2-Amino-2′-methyl-[3,4′-bipyridin]-5-yl)-N-(−4-(hydroxymethyl)cyclohexyl)-4-methylbenzenesulfonamide hydrochloride] | 0.92 | –
Cc1cc(-c2cc(-c3cc(S(=O)(=O)N[C@H]4CC[C@H](O)C4)ccc3C)cnc2N)on1 (racemic) [Example 96, trans-3-(6-amino-5-(3-methylisoxazol-5-yl)pyridin-3-yl)-N-(3-hydroxycyclopentyl)-4-methylbenzenesulfonamide] | 0.6 | –
Cc1noc(-c2cc(-c3cc(S(=O)(=O)NCC4(O)COC4)ccc3C)cnc2N)n1 [Example 56, 3-(6-Amino-5-(3-methyl-1,2,4-oxadiazol-5-yl)pyridin-3-yl)-N-((3-hydroxyoxetan-3-yl)methyl)-4-methylbenzenesulfonamide] | 1.71 | –
Cc1ccc(S(=O)(=O)NCCC(C)(C)O)cc1-c1cnc(N)c(-c2ccncc2)c1 [Example 18, 3-(2-Amino-[3,4′]bipyridinyl-5-yl)-N-(3-hydroxy-3-methyl-butyl)-4-methyl-benzenesulfonamide] | 1.2 | –
